The values below come from paper PMC4336329 (PLoS ONE, 2015).

The structures appear in SMILES notation. Out of some 310,000 compounds screened, about 14,000 (4.5%) showed an effect of 50% or more. Effects have a minus sign here. This is one part of the list.
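Also: peak tail current of the secondary pulse compared with the same well before compound.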

The target in this assay is human ether-à-go-go-related gene (hERG) potassium channel (human, UniProt Q12809). The experiment in a line: primary screen, population patch clamp on CHO cells stably expressing hERG.
Sequence of human ether-à-go-go-related gene (hERG) potassium channel (Q12809 whole entry, looked up): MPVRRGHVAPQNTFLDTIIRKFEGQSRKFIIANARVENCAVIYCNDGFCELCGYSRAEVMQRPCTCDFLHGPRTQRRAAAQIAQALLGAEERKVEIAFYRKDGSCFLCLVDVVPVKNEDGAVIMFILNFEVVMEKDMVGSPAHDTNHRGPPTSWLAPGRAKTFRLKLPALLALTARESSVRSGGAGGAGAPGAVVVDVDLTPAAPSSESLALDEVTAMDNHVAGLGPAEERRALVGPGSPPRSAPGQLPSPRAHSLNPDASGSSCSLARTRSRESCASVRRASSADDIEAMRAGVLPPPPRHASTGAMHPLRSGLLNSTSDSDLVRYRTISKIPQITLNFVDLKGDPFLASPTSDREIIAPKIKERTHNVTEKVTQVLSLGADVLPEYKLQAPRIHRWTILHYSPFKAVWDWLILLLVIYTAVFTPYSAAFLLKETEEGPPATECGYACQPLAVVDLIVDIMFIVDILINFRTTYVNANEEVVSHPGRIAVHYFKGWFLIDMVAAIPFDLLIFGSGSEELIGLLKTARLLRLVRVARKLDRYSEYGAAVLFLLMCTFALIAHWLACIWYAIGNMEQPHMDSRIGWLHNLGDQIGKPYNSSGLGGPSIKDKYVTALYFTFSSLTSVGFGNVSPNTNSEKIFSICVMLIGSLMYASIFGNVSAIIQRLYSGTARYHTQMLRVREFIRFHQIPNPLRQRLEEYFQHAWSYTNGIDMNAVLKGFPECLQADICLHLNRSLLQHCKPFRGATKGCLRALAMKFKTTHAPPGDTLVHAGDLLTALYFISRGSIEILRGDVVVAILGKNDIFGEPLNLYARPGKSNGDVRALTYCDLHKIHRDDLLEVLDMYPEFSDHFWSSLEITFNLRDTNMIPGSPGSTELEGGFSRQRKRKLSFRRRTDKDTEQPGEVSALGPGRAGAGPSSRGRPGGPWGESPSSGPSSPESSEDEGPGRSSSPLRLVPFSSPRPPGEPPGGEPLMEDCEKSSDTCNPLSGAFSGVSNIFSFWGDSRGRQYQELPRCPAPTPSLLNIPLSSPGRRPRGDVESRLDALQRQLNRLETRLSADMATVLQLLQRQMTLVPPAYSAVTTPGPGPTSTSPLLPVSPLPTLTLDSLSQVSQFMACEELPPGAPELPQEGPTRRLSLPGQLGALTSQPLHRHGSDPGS
As for `CNC(=S)N(CCc1c(C)[nH]c2ccc(F)cc12)Cc1cccnc1`, the “hERG current change (%, negative = inhibition) at 10uM” value is -14.1%.

As to `Cc1ccc(N2C(=N)SCC2=O)cc1Cl`, the “hERG current change (%, negative = inhibition) at 10uM” value is given as -70.6%.

Regarding `Cc1nc2nc(SCC(=O)NCCCN3CCCC3)nn2c(C)c1Cc1ccccc1Cl`, the “hERG current change (%, negative = inhibition) at 10uM” value is -8.22%.

For the compound `CCOC(=O)C1=C(C)NC(=O)NC1c1ccc(N(CC)CC)cc1` (stereo not drawn), the “hERG current change (%, negative = inhibition) at 10uM” value is -6.39%.

For `c1ccc(CCc2nc(-c3cccnc3)no2)cc1`, the “hERG current change (%, negative = inhibition) at 10uM” value is given as 4.59%.

Regarding `CCOC(=O)C1CCN(Cc2cc(=O)n3c(-c4ccccc4)csc3n2)CC1`, the “hERG current change (%, negative = inhibition) at 10uM” value is listed as -8.55%.

Consider `CC(=O)Nc1ccc(C(=O)CSc2nc3ccc(C)cc3[nH]2)cc1`, for which the “hERG current change (%, negative = inhibition) at 10uM” value is -9.01%.

In the case of `Cc1nc2scc(C)n2c(=O)c1S(=O)(=O)NCc1ccc(F)cc1`, the “hERG current change (%, negative = inhibition) at 10uM” value was found to be 16.8%.

Consider `COC(=O)OCC12CCC(O1)C1(C)C(=O)OCC21` (stereo not drawn), for which the “hERG current change (%, negative = inhibition) at 10uM” value amounted to 30.3%.

`Cc1cccc(C(=O)Oc2csc(=S)n2C(=O)c2cccc(C)c2)c1`: the “hERG current change (%, negative = inhibition) at 10uM” value is given as 6.76%.

Turning to `COc1ccc(C)cc1NS(=O)(=O)c1ccc(NS(=O)(=O)c2ccc(NC(C)=O)cc2)cc1`, the “hERG current change (%, negative = inhibition) at 10uM” value is given as -3.81%.

Regarding `Cc1ccc(Nc2nc3c([nH]2)c(=O)[nH]c(=O)n3C)cc1`, the “hERG current change (%, negative = inhibition) at 10uM” value was 7.95%.

Take `COC(=O)c1ccc(CSCC(=O)Nc2ccccc2)cc1`: the “hERG current change (%, negative = inhibition) at 10uM” value came to 33.3%.

Consider `Cc1ccc(OCCn2cncn2)c([N+](=O)[O-])c1`, for which the “hERG current change (%, negative = inhibition) at 10uM” value amounted to 15.4%.

With `COc1c(C)cc(Br)cc1C(=O)NC(=S)Nc1ccc(Cl)c(C(=O)O)c1`, the “hERG current change (%, negative = inhibition) at 10uM” value is on record as 40%.

For `O=C1CC(N2CCN(Cc3ccc4c(c3)OCO4)CC2)C(=O)N1CCc1ccccc1` (stereo not drawn), the “hERG current change (%, negative = inhibition) at 10uM” value is recorded as -7.69%.

Consider `COc1ccccc1OCC(O)CN1CCN(CC(=O)Nc2c(C)cccc2C)CC1.Cl` (stereo not drawn), for which the “hERG current change (%, negative = inhibition) at 10uM” value is given as -1.29%.

Regarding `Cn1c(SCC(=O)N2CCCC2)nc2ccccc21`, the “hERG current change (%, negative = inhibition) at 10uM” value was 39.9%.

Take `O=c1cc(CO)oc(CN2CCN(c3cccc(C(F)(F)F)c3)CC2)c1O`: the “hERG current change (%, negative = inhibition) at 10uM” value was determined as 0.339%.

As for `COc1ccc(CNC(=O)COc2cccnc2[N+](=O)[O-])cc1`, the “hERG current change (%, negative = inhibition) at 10uM” value is on record as -1.75%.

As for `COc1ccc(C(=O)OCc2c(C)noc2C)cc1`, the “hERG current change (%, negative = inhibition) at 10uM” value was found to be 12.9%.

Regarding `O=C(Nc1nnc(C(F)(F)F)s1)c1ccc(Br)s1`, the “hERG current change (%, negative = inhibition) at 10uM” value is recorded as 2.36%.

As to `CC1CCCN(CCCNC(=O)c2nn(C)c3c2CS(=O)(=O)c2ccccc2-3)C1` (stereo not drawn), the “hERG current change (%, negative = inhibition) at 10uM” value was -39.8%.

Turning to `COC(=O)N/N=C/c1cccs1`, the “hERG current change (%, negative = inhibition) at 10uM” value turned out to be 11.1%.

In the case of `Cl.O=C(O)c1ccc(-c2nc3ccccc3[nH]2)cc1`, the “hERG current change (%, negative = inhibition) at 10uM” value is 27.8%.

Consider `CCN(CC)S(=O)(=O)c1ccc(O)c(C(=O)OCC(=O)N2CCCC2)c1`, for which the “hERG current change (%, negative = inhibition) at 10uM” value stood at 11.4%.

In the case of `O=Cc1cn(CC(=O)N2CCc3ccccc32)c2ccccc12`, the “hERG current change (%, negative = inhibition) at 10uM” value is listed as 9.16%.

As to `CC(C)N=c1scc(-c2cccs2)n1/N=C/c1ccc(O)c(O)c1O`, the “hERG current change (%, negative = inhibition) at 10uM” value is 6.49%.

Regarding `COc1ccc(C2CC(c3ccccc3)Nc3nc(N)nn32)cc1` (stereo not drawn), the “hERG current change (%, negative = inhibition) at 10uM” value is on record as -25%.

On to `CCC(c1nnnn1Cc1cccs1)N1CCN(c2nc3ccccc3s2)CC1` (stereo not drawn), for which the “hERG current change (%, negative = inhibition) at 10uM” value is listed as -56.1%.

For the compound `COc1ccc(-c2cc(C(=O)N3CCN(Cc4ccccc4)CC3)no2)cc1OC`, the “hERG current change (%, negative = inhibition) at 10uM” value is -10.4%.

With `Cc1ccc2c(c1)Oc1ccc(NC(=O)CCCl)cc1C(=O)N2`, the “hERG current change (%, negative = inhibition) at 10uM” value was -1.32%.

On to `CCCCNC(=O)c1ccc(S(=O)(=O)c2ccc(Cl)cc2)c(NC(C)=O)c1`, for which the “hERG current change (%, negative = inhibition) at 10uM” value was -17.4%.

As for `CC(=O)c1c(C)[nH]c2ccccc2c1=O`, the “hERG current change (%, negative = inhibition) at 10uM” value came to 4.43%.

On to `CC(C1CC2CCC1C2)n1c(COc2ccccc2F)nnc1SCC(N)=O` (stereo not drawn), for which the “hERG current change (%, negative = inhibition) at 10uM” value is -11.5%.

For `CN(CC(=O)Nc1ccccc1Cl)CC(=O)Nc1ccccc1[N+](=O)[O-]`, the “hERG current change (%, negative = inhibition) at 10uM” value was -28.6%.

As to `COc1ccc(CN2CCN(Cc3c[nH]c4ccccc34)CC2CCO)c(F)c1` (stereo not drawn), the “hERG current change (%, negative = inhibition) at 10uM” value is on record as -41.4%.

On to `CCCCOC(=O)Cn1c(=O)n(CC(=O)OCCCC)c2cc(C)ccc21`, for which the “hERG current change (%, negative = inhibition) at 10uM” value is listed as -69.4%.

Turning to `COc1cc(C(=O)OCc2cc3ccccc3[nH]c2=O)cc(OC)c1OC`, the “hERG current change (%, negative = inhibition) at 10uM” value is 3.83%.

Turning to `COC(=O)C(O)(c1ccc(NC(=O)c2cccs2)cc1)C(F)(F)F` (stereo not drawn), the “hERG current change (%, negative = inhibition) at 10uM” value is given as 4.08%.

Turning to `O=C(NCCn1c(C(F)(F)F)nc2cc(C(F)(F)F)ccc21)[C@H]1CCCN1c1nc(CN2CCCCC2)cs1`, the “hERG current change (%, negative = inhibition) at 10uM” value is -17.1%.

For the compound `CCOC(=O)C1(CC2CC2)CCN(C(=O)c2cc(OC)nc3ccccc23)CC1`, the “hERG current change (%, negative = inhibition) at 10uM” value was -12.9%.

As for `O=C(O)c1cc(-c2ccc(O)cc2)on1`, the “hERG current change (%, negative = inhibition) at 10uM” value is 19.1%.

Take `COc1ccc(NC(=S)N2CCC(c3nc4ccc(Cl)cc4[nH]3)CC2)c(OC)c1`: the “hERG current change (%, negative = inhibition) at 10uM” value was -42.6%.

`CCOC(=O)c1sc(-c2cccc(C(F)(F)F)c2)nc1O`: the “hERG current change (%, negative = inhibition) at 10uM” value amounted to 10.7%.

As for `CCOc1ccc(CCNC(=O)C2=C(C)C(=O)OC23CCC(C)CC3)cc1` (stereo not drawn), the “hERG current change (%, negative = inhibition) at 10uM” value is -11.6%.

`CCOc1ccc(CCNC(=O)COC(=O)c2ccc(OC(C)C)cc2)cc1OCC`: the “hERG current change (%, negative = inhibition) at 10uM” value is -6.24%.

For the compound `C=CCc1c(OC)ccc2c1c(S(=O)(=O)c1ccc(C)cc1)cn2COC`, the “hERG current change (%, negative = inhibition) at 10uM” value was -2.73%.

`C/C=C(\C)C(=O)OC1c2c(ccc3ccc(=O)oc23)OC(C)(C)C1OC(C)=O` (stereo not drawn): the “hERG current change (%, negative = inhibition) at 10uM” value is reported as -72.5%.

For the compound `C=C(C)C(=O)N1CC2(CC(c3cccc(NC(=O)/C(C)=C\C)c3)=NO2)C[C@H]1C(N)=O` (stereo partly drawn), the “hERG current change (%, negative = inhibition) at 10uM” value worked out at 2.26%.

Consider `CCOc1ccc(C(O)C(CN2CCOCC2)c2ccccc2)cc1.Cl` (stereo not drawn), for which the “hERG current change (%, negative = inhibition) at 10uM” value worked out at 2.89%.

Regarding `CC(C)(C)c1ccc(C(=O)N2CCC(=O)N(C(CO)Cc3ccccc3)CC2)cc1` (stereo not drawn), the “hERG current change (%, negative = inhibition) at 10uM” value was -16.7%.

Regarding `CC(CC(=O)Nc1ccc(S(=O)(=O)N2CCOCC2)cc1)c1ccccc1` (stereo not drawn), the “hERG current change (%, negative = inhibition) at 10uM” value was -4.25%.

`O=C(CN1CCOCC1)Nc1ccc(S(=O)(=O)NC2CCCCC2)cc1`: the “hERG current change (%, negative = inhibition) at 10uM” value is -2.5%.

In the case of `COCCCn1[nH]c2c3c(ccc2c1=O)C(=O)c1ccccc1C3=O`, the “hERG current change (%, negative = inhibition) at 10uM” value is on record as -3.05%.

Take `Cc1oc(-c2ccccc2F)nc1CS(=O)CC(=O)NCCN1CCCCC1C` (stereo not drawn): the “hERG current change (%, negative = inhibition) at 10uM” value is recorded as -6.01%.

As for `COc1c2c(cc3oc(C)cc(=O)c13)OC(C(C)(C)OC1OC(CO)C(O)C(O)C1O)C2` (stereo not drawn), the “hERG current change (%, negative = inhibition) at 10uM” value is reported as 15.8%.
